Reference: the RNAGym collection of RNA variant scans (doi:10.1101/gad.245936.114)
This sample is rich in variants without activity.

B1: tRNA (parent)
chain: CUCUCGGUAGCCAAGUUGGUUUAAGGCGCAAGACUUUAAUUUAUCACUACGAAAUCUUGAGAUCGGGCGUUCGACUCGCCCCCGGGAGAUUUUUUCCUCGAGCAA

Variants of: B1
Test: nonsense suppression (GFP-seq) (ratio to wild type); higher = more function; SUP4oc tRNA, yeast GFP reporter sort-seq
In short: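 Nonsense suppression (GFPSEQ) is the median GFP/RFP ratio of each sorting bin, weighted by the variant's estimated share of cells in that bin and expressed relative to the unmutated parent tRNA. Yeast strains carried genome-integrated variants of an ochre-suppressor tRNA from a library with ~3% random mutations, plus a galactose-driven GFP ochre reporter and RFP, and were grown in raffinose/galactose medium containing 80 mg/L adenine. Cells were sorted into GFP/RFP bins, each bin was Illumina-sequenced (phred ≥30), and variants were kept only with ≥100 reads and ≥30 cells.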

Nonsense suppression, 0.0467:
G15A A24C

Nonsense suppression, 0.0395:
G15A A33G

Nonsense suppression, 0.0274:
G15A A31G

Nonsense suppression, 0.0284:
A14U A24C

Nonsense suppression, ≤ 0.026:
A14G G28A U71A
A14G G28U G78C
A14G G32C
A14G G59A
A14G G59C
A14G G61C C79U
A14G G61U
A14G G65A U71C C72G G88A
A14G G66U
A14G G67C
A14G G84A
A14G U16C A33C G88A
A14G U16C G25C A54U A60G G65C
A14G U17A G25A C29U U63G
A14G U17C G61A A74C
A14G U20A C68A
A14G U20A G26U A54C A87U
A14G U20A U22C G66A
A14G U20G
A14G U20G C34U C64U
A14G U21A C34G
A14G U21C
A14G U21C G66C
A14G U21G C29U A30U C34A
A14G U22A C27A
A14G U35C
A14G U57C U58A
A14G U57C U71G
A14G U57G G61A
A14G U57G G78C
A14G U58G C75G
A14G U63A
A14G U70G
A14U
A14U A23C G67U
A14U A23U
A14U A23U U71C G88C
A14U A24G
A14U A24G G84C
A14U A24U A74C
A14U A24U C34U G88C
A14U A30G C82G
A14U A31C C56G G88A
A14U A31G U57A
A14U A31U A87G
A14U A33G C83U
A14U A33U U35A G69U
A14U A54C
A14U A60U G66C C80U
A14U A62C C75G G84U
A14U A62C C75U
A14U C27A C34U
A14U C27G A60U
A14U C27G C72G G85C
A14U C27G U55C A60U C75G
A14U C27U
A14U C27U A33U
A14U C27U G61C
A14U C29U C34G C75A
A14U C34G G65U G69U
A14U C34U C75A
A14U C56A U70G
A14U C56G
A14U C56U C80U G88C
A14U C56U G85A
A14U C64A A74C A87U
A14U C64G G67A
A14U C64G G69C
A14U C68G
A14U C72G A74C C75A
A14U C75G
A14U G18A
A14U G18A A24G U71C
A14U G18C G59A
A14U G18U A23U C27G
A14U G19A C27A
A14U G19C A23U C34U
A14U G19C C29G
A14U G19C U71G
A14U G19U A24G A30U G61U C75G
A14U G19U C27U U35A
A14U G25U
A14U G25U U57A U70C C79G
A14U G26U
A14U G28A
A14U G28C
A14U G28C G65A U76G
A14U G28U
A14U G32A
A14U G32A U70A
A14U G32U
A14U G32U G61C
A14U G59A
A14U G59A U63G
A14U G59A U71C
A14U G61C G67C
A14U G66U
A14U G73A
A14U G86C
A14U G88A
A14U U16A A62U G84U
A14U U16A C80U
A14U U16C
A14U U16C G61U G78C
A14U U16C G66C C75U
A14U U16C U21G G59C G69A
A14U U16C U58A G61U C72U
A14U U16G U55A G78A G85A G86A
A14U U17A C81G
A14U U17C G61U C80G
A14U U17G C27U U55C
A14U U17G G18C A23G A31G
A14U U20A A30C U35A G69U G88U
A14U U20A A74C C81A
A14U U20C A30G A60G G69C U70G
A14U U20C A31U G67U
A14U U21A A24G A31C C56G G88A
A14U U21C A24C G26U A54U
A14U U21C A24C G26U A54U G78A
A14U U22C G88A
A14U U22G A24U G61U G67C A89U
A14U U35C G61A A74C
A14U U55A A87U
A14U U55A G67A
A14U U55C
A14U U55C G66U C83A
A14U U55C G78A
A14U U57G
A14U U57G U76A C83A
A14U U58A
A14U U58A A60U
A14U U58G G59A G73A
A14U U63C G66U G69C
A14U U71A
A14U U71G
A14U U71G C72G
G15A A23C
G15A A23G C64U U71A
G15A A24C A33C U55A U70A G84A
G15A A24G
G15A A30G
G15A A30G G66C
G15A A31G G73C U76C G84U
G15A A31U A33G
G15A A31U A62C
G15A A31U U35C U76G C83U
G15A A33G C34G C68U G73C
G15A A54C U71G G78A
G15A A54G G66C C75G C79A C81U
G15A A60C G66A G88U
G15A A62U
G15A C27U U58G
G15A C27U U63G A89C
G15A C29A G32U
G15A C29U C77G
G15A C29U U55G U76C
G15A C34G C83A G85C
G15A C34U G65C U70A C72G
G15A C56A
G15A C64G G67U G84U A87U
G15A C77G

Nonsense suppression, 0.0439:
A14U U63A

Nonsense suppression, 0.854:
G15A C75A
